Laboratory results published in ChEMBL document CHEMBL4888484, “Replenishing the malaria drug discovery pipeline: Screening and hit evaluation of the MMV Hit Generation Library 1 (HGL1) against asexual blood stage Plasmodium falciparum ,using a nano luciferase reporter read-out” (2022).
The campaign covered roughly 150,000 compounds. About 540 (0.36%) showed an effect of 50% or more. This is one part of the list.

tested on: Plasmodium falciparum; assay: Primary screen in NF54 nanoGlo assay, in single point, at 2uM, 72h; a lower Z score goes with more inhibition; type: functional, Erythrocyte; conditions: timepoint 72 hour

SMILES	% Inhibition [%]	Z score
COc1cccc(Nc2nnc(CC(=O)N3CCCCC3)s2)c1	-19	2.24
CC[C@@H](C(=O)OC)n1nc(C2CCNCC2)n(Cc2ccccc2)c1=O	-10	1.1
O=C1C[C@H](c2ccc(OCc3ccccc3Cl)cc2)c2cnn(-c3nc4ccccc4s3)c2N1	-10	1.49
Cc1oc(-c2ccc3ccccc3c2)nc1Cn1cccn1	5	-0.87
Cc1ccc(OCCN(C)S(=O)(=O)N2CCCCC2)c(Cl)c1	-7	1.09
COc1ccccc1-n1nc(CN(C(=O)CC(C)(C)C)C2CC2)c2c1CCN(Cc1ccccc1F)C2	-14	1.34
COc1ccccc1CNC(=O)c1ccccc1N1C(=O)[C@@H]2Cc3c([nH]c4ccccc34)C(c3ccccc3C)N2C1=O (stereo partly drawn)	-6	0.91
Cc1nc(NCCc2ccc3c(c2)OCO3)cc([C@H]2C[C@@H](O)C2)n1	1	-0.09
CC(=O)Nc1ccc(C(=O)O[C@@H](C)C(N)=O)cc1	-8	1.17
COCCn1cc(C(=O)Nc2ccc3ncn(C(C)C)c(=O)c3c2)c2ccccc2c1=O	-1	0.15
COc1cc2ccccc2cc1C(=O)Nc1cc(C)nn1C	1	-0.16
N=C(NOS(=O)(=O)c1ccc2ccccc2c1)c1cccnc1	-10	1.42
COc1ccc(CC(=O)N2CCC(Oc3ccc(Cl)cn3)CC2)cc1OC	-10	1.51
COCCc1nc(CCn2nc(C)cc2C)n(CC(F)(F)F)n1	2	-0.36
Cc1cccc2c1nc1n2[C@@H](CNC2CCC2)COC1	32	-3.69
CC1CCN(S(=O)(=O)NC(C)C2CC3CCC2C3)CC1 (stereo not drawn)	-3	0.66
Cc1ccncc1C(=O)N1CCC(Cc2ccc(CN3CCCC3)cc2)CC1	-10	2.01
CCn1nccc1C(=O)Nc1nn(CC(F)(F)F)c2cc(OC(C)C)ccc12	-9	1.18
COC[C@H]1C[C@@H](NC(=O)C2CCCC2)[C@H](O)[C@@H]1O	30	-3.41
Cc1ccc(C(=O)N(C)[C@@H](C)C2CC2)s1	-11	1.25
CCC(C)N(C(=O)CC1CC1)C(C)CC (stereo not drawn)	-16	1.75
CC(C)[C@@H]1CCCCN1C(=O)Nc1cnn(-c2ccccn2)c1	-12	1.1
Cc1nnsc1C(=O)NCc1cc(-c2ccncc2)n(C2CCCC2)n1	9	-1.05
CC[C@@H](C(=O)NCC1(COC)CC1)n1cccn1	-6	0.64
Cc1cccc2nnc(-c3cnc(C(C)C)nc3)n12	-8	1.13
Cn1cc(CNC(=O)c2[nH]nc3c2CCCC3)c(NC(=O)c2[nH]nc3c2CCCC3)n1	-8	0.77
COC(=O)CC1CN(C(C)Cc2ccc3ccccc3n2)CCO1 (stereo not drawn)	-4	0.8

SMILES	% Inhibition [%]	Z score
Cc1ccc(CN2CCCn3nc(C(=O)NCC(=O)N4CCN(C)CC4)cc3C2=O)cc1	-13	2.27
CCn1ncc(Br)c1C(=O)N[C@@H](C)c1ncc(C)s1	-17	2.75
Cc1nc(C)c(CC(=O)Nc2ccc(C(N)=O)cc2)c(=O)[nH]1	-36	4.24
COc1ccc(C[n+]2cccc(C(=O)Nc3c(C)cccc3C)c2)cc1OC	-8	1.25
CCn1ncc(NC(=O)c2cc(-c3ccccc3)on2)c1C	34	-4.59
CCc1noc(C)c1CNCc1ccnn1-c1ccccc1OC	0	0.04
CCc1noc(NC(C)=O)c1-c1ccc(C)c(S(=O)(=O)N[C@@H](C)CC)c1	-4	0.59
CC(=O)Nc1nc2ccc(NC(=O)NCc3ccc(C)cc3)cc2s1	-7	1.09
Clc1cccc2c1OCCN2Cc1cncnc1	-6	0.66
O=C(C1=CCCC1)N1CCC[C@@]2(C1)OCc1ccccc12	1	-0.12
Cc1cc(O)cc(=O)n1CCc1ccccc1	-8	1.18
O=S(=O)(Cc1ccccc1)NCCN1CCCCC1	-15	1.57
O=S(=O)(c1ccc(F)cc1)N1CCCO1	-7	1.29
O=C([C@@H]1CCCc2[nH]nnc21)N1CC(N2CCCC2=O)C1	13	-1.77
CCN1CCC(Nc2ncnc3c2cnn3-c2ccccc2)CC1	2	-0.24
Cc1cc(O[C@H]2CCN(C(=O)Cc3cccs3)C2)nc(C)n1	-7	1.06
CC(NC(=O)C1CCCN(C(=O)c2cccs2)C1)c1cccnc1 (stereo not drawn)	-13	1.36
C[C@@H](c1nnnn1-c1ccccc1)N1CCC(Cn2ccnn2)CC1	-13	1.26
COc1cc(F)c(C(C)NC(=O)N2CC(C)OCC2C)cc1OC (stereo not drawn)	-1	0.09
CC(NC(=O)C1CCc2nn(C)c(=O)cc2C1)c1ccc(F)cc1 (stereo not drawn)	-10	1.24
CC(=O)NC1(C(=O)Nc2ccc(F)c(N3CCCC3=O)c2)CCCC1	-13	2.66
CC(C)n1ccc(CN2CCC[C@H](c3cc(C(F)(F)F)[nH]n3)C2)n1	29	-0.07
CC[C@H]1CN(C(=O)N2CCC(C(=O)NCCN3CCOCC3)CC2)c2cc(C)ccc2O1	-4	0.77
O=C(c1[nH]nc2c1CCc1ccccc1-2)N1CCN(Cc2ccc3c(c2)OCO3)CC1	4	-0.36
Cc1cc(C)cc(C2=CCN(C(=O)CN3C(=O)NC4(CCCC4)C3=O)CC2)c1	12	-1.65
Cc1ccc(-c2nccn2Cc2ccc(CN)cc2)cc1F	-15	1.52
O=C(NC1(CN2CCOCC2)CCCC1)c1ccnc(-n2cnnc2)c1	-8	1.35
